# Reference: PubChem BioAssay (NCI)
#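 Where inhibition never reached the appropriate level, the endpoint shown equals the highest concentration tested. Otherwise, values were interpolated linearly from a five-concentration, 48-hour dose response in 96-well plates. GI50 = concentration required for 50% inhibition of growth. Definition used: TGI = concentration required for complete inhibition of growth.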 Square brackets hold non-standard residues; d marks the D form. Peptide text beside a SMILES is read from it. * marks the point of attachment. Bn2Val = CC(C)[C@@H](C(=O)*)N(Cc1ccccc1)Cc1ccccc1; NHPiperonyl = c1cc2c(cc1CN*)OCO2; NMeV = CN[C@H](C(=O)O)C(C)C; dNMeA = CN[C@H](C)C(=O)O
# Test system: NCI-H322M lung
# Test: DTP human tumour cell line panel, 48 h
Structure (SMILES),TGI [µM],GI50 [µM]
NS(=O)(=O)c1ccc(C(=O)O)cc1,> 100,
O=C(/C=C/c1ccccc1)Nc1ncc(Cc2ccccc2)s1,> 35.6,0.53
Cc1ccc2oc(=O)cc(CC(=O)O)c2c1,> 100,
OCC(O)C(O)C(O)c1nn[nH]n1 (configuration not stated),> 100,
O=S(Cc1cnc2ccccc2c1)c1nc2ccccc2nc1-c1cccs1 (configuration not stated),39.9,
COc1ccc(Nc2[nH]n(C3=Nc4ccccc4Sc4ccccc43)c(=O)c2C#N)cc1,> 100,6.56
O=c1ncc(I)c[nH]1,> 100,> 100
C[C@]12CCC(=O)C=C1CC[C@@H]1[C@@H]2CC[C@]2(C)C(=O)/C(=C/c3ccncc3)C[C@@H]12,24,
COc1ccc2c(c1)O/C(=C\c1ccc([N+](=O)[O-])o1)C2=O,> 62.1,4.37
Cc1c(C)n(CC(O)CNC2CCCCC2C)c2ccccc12 (configuration not stated),28.3,14.5
N=C(N)SC(c1ccccc1)c1ccccc1,76.5,
CC(/C=C/c1ccccc1)=N\N=C(C)\C=C\c1ccccc1,> 100,
CCN1C(=O)/C(=C\c2coc3ccccc3c2=O)SC1=S,> 100,
CC(C)[C@H](NC(=O)[C@H](C(C)C)N(Cc1ccccc1)Cc1ccccc1)C(=O)N(C)[C@H](C(=O)N1CCC[C@H]1C(=O)N(C)[C@H](C)C(=O)NCc1ccc2c(c1)OCO2)C(C)C (Bn2Val-V[NMeV]P[dNMeA]-NHPiperonyl),> 100,
COc1cc2c(NCCN(C)C)nc3c4cc5c(cc4ccc3c2cc1OC)OCO5,6.19,
CCOC(=O)NC(=O)c1cn(CC(=O)NCC(=O)NCC(=O)N2CCN(CCn3c(C)nc(C(N)=O)c3N)CC2)c(=O)[nH]c1=O,> 100,
CCCCCCCCCCCCCCCCCc1cc(Cl)nc(Cl)n1,> 100,
CC1=CC[C@@H]2[C@@H](CC[C@@]2(C)O)C(C)(C)[C@H]1CC[C@@H]1[C@@]2(C)CC[C@@H](O)C(C)(C)O[C@@H]2CC[C@]1(C)O,50,
CC[C@]1(Cc2ccc(OC)c(OC)c2)C=[N+]([O-])O[C@H](OC2CCCCC2c2ccccc2)[C@@H]1OC(C)=O (some centres not stated),> 100,
Cc1cc(N2CCCCC2)nc(NCc2cc(Nc3ccnc4cc(Cl)ccc34)ccc2F)n1,3.62,1.65
CC(/C=C/C=C\C=C\C=C(/C)C(=O)NC(C)CO)=C\C(C)C(O)/C(C)=C/C(C)CCc1ccccc1 (configuration not stated),46,
O=C1CC2(CCN(CC3COc4ccccc4O3)CC2)C(=O)N1N1CCCCCC1 (configuration not stated),> 100,
CCOc1ccccc1NC(=O)CSc1nnc(Cc2ccccc2)o1,> 100,
COC1CC(=O)C2C(=O)N(c3ccccc3)C(=O)C23C(C(=O)c2ccccc2)=C(C)NC13O (configuration not stated),60.9,
COc1ccc(-c2cnc(SCC(=O)c3c(C)n(C)n(-c4ccccc4)c3=O)n2-c2ccc(OC)cc2)cc1,> 50,> 50
CC(C)(C)n1nc(C2CC2)cc1NC(=O)Nc1ccc(Cl)cc1,> 100,

Structure (SMILES),TGI [µM],GI50 [µM]
CC1(C)CC(=O)c2c([nH]c(=S)c(C#N)c2-c2ccc(Br)cc2)C1,> 100,
NC(N)=NS(=O)(=O)c1ccc(NC(=O)c2cccn3c(=O)c4ccccc4nc23)cc1,> 100,
S=P(C1CCCCC1)(C1CCCCC1)C(c1cccnc1)N1CCCC1 (configuration not stated),> 100,
Cc1cccc(-c2cccc(COCc3cccc(-c4cccc(CO)n4)n3)n2)n1,> 50,
O=C1C[C@@H]2[C@@H](C=CC23CC3)N1O,> 100,
Cc1ccc(N/C(=C(/C(Cl)=C(Cl)Cl)[N+](=O)[O-])n2nnc3ccccc32)cc1,43.6,
CCOC(=O)c1ccc(OCc2nc3cc(C(F)(F)F)ccc3nc2-c2ccccc2)cc1,> 100,
O=P1(N(CCCl)CCCl)Oc2c(Cl)cc(Cl)c(Cl)c2Cc2c(Cl)c(Cl)cc(Cl)c2O1,> 100,
COc1ccc2c(c1)OCC1=C2Oc2ccccc2C1,> 100,
Cc1cc(C)c(-n2c(C)c(C)c(C#N)c2N)c(C)c1,> 100,
O=[N+]([O-])c1ccc(CSc2c3ccccc3nc3ccccc23)cc1,22.7,
NC(CCCNc1ccc(O)cc1)C(=O)O (configuration not stated),> 100,
CCC(C#N)NCc1ccc(CNC(C#N)CC)cc1 (configuration not stated),> 100,
CC(=O)OC(=C(C#N)C#N)c1nccnc1C(=O)O,> 100,
Cc1ccccc1NC(=O)N/C(N)=N/c1nc(C)c(C)s1,> 100,0.598
Clc1ccc(C2ON=C(c3ccccc3)N2C23CC4CC(CC(C4)C2)C3)cc1Cl (configuration not stated),> 10,
Cc1nc2ccc(F)cc2c2c1CCN2c1ccccc1,72.3,
Oc1ccccc1/C=N/Nc1nc2ccccc2s1,> 100,25.1
COc1ccc(-c2c(-c3cc4c(c(OC)c3OC)OCO4)noc2N)cc1,> 100,0.625
C=C(c1ccccc1)[C@@]1(O)CCCC[C@H]1NC(c1ccccc1)c1ccccc1,33.4,
CCOC(=O)C1C(c2ccco2)C2(C#N)C(=N)OC1(C)C2(C#N)C#N (configuration not stated),> 100,
COc1ccccc1CN=C1NC(=O)/C(=C/c2ccc3ncccc3c2)S1,> 23,5.35
O=C(CC(O)c1cccnc1)CC(O)c1cccnc1 (configuration not stated),32.9,
CSC1=C(C(=O)N(COCC[Si](C)(C)C)c2ccccc2Br)CCC(C(C)(C)C)C1 (configuration not stated),83.8,
COc1cccc(-c2cc(C(=O)Nc3ccc(Cl)cc3)nc(N)n2)c1,> 100,
OC1C2CCC3C2CC(C(O)(c2ccccc2)c2ccccc2)C13 (configuration not stated),> 100,

Structure (SMILES),TGI [µM],GI50 [µM]
Clc1cc(Cl)cc(C2SCc3nc4ccccc4n32)c1 (configuration not stated),39.1,
CC(=O)OC1COC(n2c(O)c(N=Nc3ccc([N+](=O)[O-])cc3)c3cc(Br)c([N+](=O)[O-])cc32)C(OC(C)=O)C1OC(C)=O (configuration not stated),> 100,
CN1C(=O)C(C)(C)NS1(=O)=O,> 100,
C/C(=N\N)C(CN1CCCCC1)C(c1ccccc1)c1c(O)c2ccccc2oc1=O (configuration not stated),> 100,
N=C1/C(=C/c2ccco2)C(=O)N=C2SC=NN12,> 100,
CC(=O)Oc1c(C)cc2c(c1C)C(C)(C)CN2C(=O)C(C)(C)C,> 100,
CCCCCCCCCCCCCCCCOP(=O)(O)OP(=O)(O)OCC1OC(n2cnc3c(N)ncnc32)C(O)C1O (configuration not stated),> 100,
O=C1c2cccc3c([N+](=O)[O-])ccc(c23)C(=O)N1CCCCl,> 10,> 10
CCOc1ccc(NC(=O)/C(Cc2nc3ccccc3[nH]c2=O)=N\O)cc1,> 100,
CC[C@@]1(O)C(=O)OCc2c1cc1n(c2=O)Cc2cc3c([N+](=O)[O-])c(O)ccc3nc2-1,21.8,1.84
c1cc2c(cc1NC1=NCCO1)CCCC2,47.7,
C[C@]12CC[C@H](OC(=O)Cc3ccc(N(CCCl)CCCl)cc3)CC1CC[C@@H]1C2CC[C@]2(C)NC(=O)CCC12 (some centres not stated),30.1,
C#CCn1c(=O)c(I)cn(/C(=C\C(=O)OCC)C(=O)OCC)c1=O,30.4,
CN(C)C(=O)C(NCCO)c1ccccc1 (configuration not stated),> 100,
CCc1cc(C)cc2[n+]1CC=C2C,> 100,
Cc1c2ccccc2c(CSC(=N)N)c2ccccc12,1.89,
Cc1nc2ccccc2c(=O)n1Nc1ccc(C(=O)O)cc1,> 100,
CC(C)(C)c1cc(O)c2c(c1O)C(=O)CCC2,> 100,
Nc1ccc([As](=O)(O)O)cc1,> 100,
CN(Cc1ccccc1)c1ncnc2ccc(Br)cc12,23.4,10.5
Cc1cc2nn(C3CCCCO3)nc2cc1C (configuration not stated),> 100,
CN(C)C=O.CN(C)C=O.CN1C(C(=O)Nc2ccccn2)=C([O-])c2ccccc2S1(=O)=O.CN1C(C(=O)Nc2ccccn2)=C([O-])c2ccccc2S1(=O)=O.[Cu+2],79.2,32.9
CC(=O)O[C@H]1CC[C@@]2(C)C(=CC[C@@H]3C2CC[C@]2(C)C(=O)NC(=O)CC32)C1 (some centres not stated),> 100,
COc1ccc(C(=O)OC2C(OC3C(O)COC(O[C@H]4C[C@H]5[C@@H]6CC=C7C[C@@H](O)CC[C@]7(C)[C@H]6CC[C@]5(C)[C@H]4[C@H](C)C(=O)CCC(C)C)C3OC(=O)C(C)C)OCC(O)C2O)cc1 (some centres not stated),5.7,1.57
O=C1CSC(c2c[nH]c3ccccc23)N1c1cccc([N+](=O)[O-])c1 (configuration not stated),> 100,
Nc1cc(N2CCOCC2)nc(=O)n1-c1ccccc1,> 100,

Structure (SMILES),TGI [µM],GI50 [µM]
CS(=O)(=O)c1nccc(-c2c(-c3cccc(OCc4ccccc4)c3)nc3sccn23)n1,10.1,5.11
C/C(=N\NC(=O)C[n+]1ccccc1)c1sc(-c2nc(C)c(/C(C)=N/NC(=O)C[n+]3ccccc3)s2)nc1C,> 100,
O=S(Nc1ccccc1)c1ccccc1Oc1ccccc1 (configuration not stated),> 100,
Cc1ccc2c(=O)cc(-c3cc4ccccc4s3)[nH]c2n1,> 100,
[N-]=[N+]=CC(=O)OC1CCc2ccccc21 (configuration not stated),> 100,
CN(C)CCn1c2c(c3ccccc31)CCc1ccccc1-2,35.2,
OCCNC(=S)Nc1ccc(-c2nc(N3C[C@H]4CC[C@@H](C3)O4)c3cccn3n2)cc1,16,0.0999
Nc1c(C(=O)c2ccc(Cl)cc2)[nH]c(Nc2ccc(Cl)cc2)c1C(=S)Nc1ccccc1,66.3,
COCn1c(=O)n(C)c(=O)c2c1nc1c(c(=O)n(C)c(=O)n1COC)[n+]2[O-],> 100,
O=C1CC(c2ccccc2)NCCCCN2CC(CN1)C(C(O)c1ccccc1)C2=O (configuration not stated),> 100,
COc1cccc(-c2cc(=O)c3cc(C)c(C)c(C(=O)O)c3o2)c1,> 100,
Nc1nc2ccccc2c2[nH]c3ccccc3c12,3.79,1.42
CCC1CCC2C3CC=C4CC(OC(C)=O)C(N)CC4(C)C3CCC12C (configuration not stated),11.2,
CO[C@H](C(=O)O[C@H]1C(=O)N2CCC3CCC1C32C)c1ccccc1 (some centres not stated),> 100,
O=c1oc2cc(O)ccc2c(O)c1C(c1ccc2ccccc2c1)c1c(O)c2ccc(O)cc2oc1=O,> 100,
Nc1nc(N)c2c(CCc3ccc(C(=O)N[C@@H](CCC(=O)O)C(=O)O)cc3)ccnc2n1,> 100,
Cn1cc(S(=O)(=O)NC(=O)Nc2ccc(Cl)cc2)c(=O)c2ccc(Cl)cc21,> 100,
Nc1ncnc2c1ncn2C1OC(CO)CC1O (configuration not stated),> 100,
CSC1=NC(=O)CCN1C1OCC(OC(C)=O)C(OC(C)=O)C1OC(C)=O (configuration not stated),> 31.6,
SCc1ccc(-c2ccc(CS)cc2)cc1,15.4,
CC(C)NC1CCCCC2c3cc(F)ccc3[C@]12O (some centres not stated),> 100,
Cc1ccc(C(=O)Nc2ccc(CN3CCN(C)CC3)c(C(F)(F)F)c2)cc1C#Cc1cnc(N)c2ccc(C#N)cc12,> 39.5,4.63
COc1c(N2CCCCC2)c2c(=O)c3ccccc3oc2c2cc(C)oc12,> 100,
O=c1[nH]ccc2nc(N3CCC(O)CC3)nc(Nc3ccc(N4CCOCC4)cc3)c12,> 100,
